# Measurements published in publication PMC6919601, “Identification of Plasmodium dipeptidyl aminopeptidase allosteric inhibitors by high throughput screening” (PLoS ONE, 2019).
# The whole screen tested about 110,000 compounds, of which about 230 (0.21%) showed an effect of 50% or more. Some of the results follow.
# Molecular target: DPAP1 (Plasmodium falciparum, UniProt Q8IIJ9)
# Assay: primary screen, percent inhibition; read by cleavage of a fluorogenic dipeptide substrate; higher = more effect of the substance
# Set-up: species or system P. falciparum D10 trophozoite lysates; single well
# 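Also: 30 min substrate incubation versus DMSO and 10 µM JCP410 controls.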
# Sequence of DPAP1 (Q8IIJ9 whole entry, looked up): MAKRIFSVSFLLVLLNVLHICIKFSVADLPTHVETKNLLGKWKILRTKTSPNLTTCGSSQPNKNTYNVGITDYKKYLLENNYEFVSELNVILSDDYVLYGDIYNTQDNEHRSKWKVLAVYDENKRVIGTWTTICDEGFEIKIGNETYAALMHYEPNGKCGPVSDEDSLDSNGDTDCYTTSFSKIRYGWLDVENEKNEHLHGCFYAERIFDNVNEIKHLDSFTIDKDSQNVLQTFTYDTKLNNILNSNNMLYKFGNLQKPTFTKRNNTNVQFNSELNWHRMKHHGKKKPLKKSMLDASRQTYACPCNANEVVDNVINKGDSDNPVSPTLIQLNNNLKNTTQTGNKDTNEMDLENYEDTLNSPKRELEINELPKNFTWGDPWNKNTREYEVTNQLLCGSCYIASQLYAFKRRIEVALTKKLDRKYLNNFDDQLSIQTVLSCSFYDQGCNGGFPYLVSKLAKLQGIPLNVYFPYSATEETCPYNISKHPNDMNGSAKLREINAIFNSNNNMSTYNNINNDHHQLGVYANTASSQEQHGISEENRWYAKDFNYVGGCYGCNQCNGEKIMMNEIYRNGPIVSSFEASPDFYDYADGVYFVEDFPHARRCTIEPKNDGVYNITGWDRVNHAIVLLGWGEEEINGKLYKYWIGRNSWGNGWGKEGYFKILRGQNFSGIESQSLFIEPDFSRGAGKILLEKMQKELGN
row,SMILES,% Inhibition @ 10 uM [%]
1,Cc1ccccc1CN1CCN(CC(=O)NCCCSC2CCCCC2)C1=O,-2.72
2,CCCCNC(=O)C1CC(c2ccc(OC)c(OC)c2)=NO1 (stereo not drawn),-2.16
3,O=C(CN1C(=O)c2ccccc2S1(=O)=O)NCc1cccnc1,-1.51
4,Cc1ccc(S(=O)(=O)c2nnn3c2nc(N2CCC(C(N)=O)CC2)c2ccccc23)cc1,-6.91
5,c1ccc(Cn2c3ccccc3n3nc(-c4ccccc4)nc23)cc1,-1.86
6,O=C(NCCc1cccc(Cl)c1)c1ccc2c(c1)OCO2,0.316
7,COc1ccccc1-c1nc(S(C)(=O)=O)nn1Cc1ccccc1F,-2.79
8,Cc1cc(=O)[nH]c(=O)n1-c1ccc(CC(=O)O)cc1,-3.92
9,CCN(CC)S(=O)(=O)c1ccc(/N=C/c2c(C)nn(-c3ccc(C)cc3)c2O)cc1,2.36
10,CC(=O)c1ccc2c(c1)c1ccccc1n2CCC(C)C,4.18
11,Nc1c(C(=O)Nc2nncs2)sc2nc3c(cc12)N1CCC3CC1,0.883
12,Cc1ccc(C2CC(=O)C(/C=N/CCN3CCN(C4OC(=O)c5ccccc54)CC3)=C(O)C2)cc1 (stereo not drawn),-4.85
13,Cc1ccc2nc3c(cc(C(=O)NCc4cccnc4)c(=N)n3CCN3CCOCC3)c(=O)n2c1,-5.14
14,O=C(Cn1ccc2cc(S(=O)(=O)N3CCCC3)ccc21)NCc1ccc2c(c1)OCO2,-7.02
15,COCCCNC(=O)c1ccc(CN2CCOCC2)cc1,-1.59
16,N#CC1=C(N)Oc2nc(O)nc(O)c2C1c1cccc(F)c1 (stereo not drawn),3.1
17,O=[N+]([O-])c1ccc(N2CCN(Cc3ccc(Br)cc3)CC2)cc1,1.55
18,CCC(Sc1nc2cccnc2[nH]1)C(=O)N1CCOCC1 (stereo not drawn),7.91
19,Cc1ccccc1Cn1nnc(-c2ccc(C(=O)O)cc2)n1,-0.624
20,CCOC(=O)c1c(NC(=O)Cc2csc(C)n2)sc(C)c1C,0.758
21,Cc1cc(CN2CCN(c3ccccc3F)CC2)c(C)n1-c1cccc(C(F)(F)F)c1,-3.5
22,O=C(O)c1ccc(Sc2ccc(S(=O)(=O)c3ccc(C(=O)O)c(C(=O)O)c3)cc2)cc1,11.3
23,O=C(O)C1Cc2c([nH]c3ccccc23)C(c2ccc(F)cc2)N1 (stereo not drawn),-5.9
24,CCOC(=O)C1=C(C)NC(=O)NC1c1ccc(N(C)C)cc1 (stereo not drawn),-4.98
25,CCn1c(SCc2nc(-c3ccc(OC)cc3)no2)nnc1-c1ccncc1,4.47
26,NC(=S)Nc1nc2ccccc2nc1O,-5
27,CS(=O)(=O)CCC(C(=O)N1CC=C(c2ccccc2)CC1)N1Cc2ccccc2C1=O (stereo not drawn),3.37
